The supplement of paper PMC7125110
± gives the standard error. Variants at the floor of the assay are shown more often than the library holds them.

B1: glmS ribozyme (parent)
chain: AUAAAAGCGCCAGAACUACAGAAAUGUAGUUGACGAGGAGGAGGUUUAUCGAAUUUUCGGCGGAUGCCUCCAAA

Tests used:
Conditions in all cases: with glucosamine-6-phosphate
[1] = variants of: B1; assay: self-cleavage kobs at 40 uM GlcN6P; higher = faster cleavage; RNA array
How it was run: (§1)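 E. coli RNA polymerase transcribed barcoded ribozyme variants in situ on sequenced MiSeq chips, which were tracked via a hybridised Cy3 probe at 37 °C. Tiles were imaged over ~14 h after glucosamine-6-phosphate (40 μM to 10 mM) in HEPES/KCl/Mg(OAc)2 buffer was flowed in. Normalised per-tile medians were fit to one- or two-exponential decays for kobs, and kcat and KM came from weighted Michaelis–Menten fits.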

[2] = variants of: B1; assay: self-cleavage kobs at 640 uM GlcN6P; higher = faster cleavage; RNA array
How it was run: as §1

[3] = variants of: B1; assay: self-cleavage kobs at 160 uM GlcN6P; higher = faster cleavage; RNA array
How it was run: as §1

[4] = variants of: B1; assay: self-cleavage kobs at 10000 uM GlcN6P; higher = faster cleavage; RNA array
How it was run: as §1

[5] = variants of: B1; assay: self-cleavage kobs at 2500 uM GlcN6P; higher = faster cleavage; RNA array
How it was run: as §1

[6] = variants of: B1; assay: kcat; higher = faster cleavage; RNA array
How it was run: as §1

Variant	self-cleavage kobs at 40 uM GlcN6P [1]	self-cleavage kobs at 640 uM GlcN6P [2]	self-cleavage kobs at 160 uM GlcN6P [3]	self-cleavage kobs at 10000 uM GlcN6P [4]	self-cleavage kobs at 2500 uM GlcN6P [5]	kcat [6]
A6U G59A	< 1e-05 s⁻¹	< 1e-05 s⁻¹	–	–	–	–
C10U A53U	< 1e-05 s⁻¹	–	< 1e-05 s⁻¹	–	–	–
A6G A48C U54C C68A	< 1e-05 s⁻¹	–	–	< 1e-05 s⁻¹	–	–
A6U A39U C70U	< 1e-05 s⁻¹	–	< 1e-05 s⁻¹	–	–	–
A6U A53C	< 1e-05 s⁻¹	–	–	–	–	–
C11A A33U U45A	< 1e-05 s⁻¹	–	–	–	–	–
C8G G44U	< 1e-05 s⁻¹	–	< 1e-05 s⁻¹	< 1e-05 s⁻¹	< 1e-05 s⁻¹	–
C8G G41C C70G	< 1e-05 s⁻¹	< 1e-05 s⁻¹	< 1e-05 s⁻¹	< 1e-05 s⁻¹	–	–
G9A A14C G60A	< 1e-05 s⁻¹	–	–	–	–	–
A6G G38U U46C	< 1e-05 s⁻¹	–	–	–	< 1e-05 s⁻¹	–
C10G A14G G29U U30C A36C G43U	< 1e-05 s⁻¹	< 1e-05 s⁻¹	–	–	–	–
G7C C16A U49A	< 1e-05 s⁻¹	–	–	< 1e-05 s⁻¹	< 1e-05 s⁻¹	–
A6U U57C	< 1e-05 s⁻¹	–	–	< 1e-05 s⁻¹	–	–
C8G C10A	< 1e-05 s⁻¹	< 1e-05 s⁻¹	< 1e-05 s⁻¹	< 1e-05 s⁻¹	< 1e-05 s⁻¹	–
C10U C11G G62U	< 1e-05 s⁻¹	–	–	< 1e-05 s⁻¹	–	–
A36U U55A C61A	< 1e-05 s⁻¹	–	–	–	–	< 1e-05 s⁻¹
G7U U46A	< 1e-05 s⁻¹	< 1e-05 s⁻¹	< 1e-05 s⁻¹	< 1e-05 s⁻¹	< 1e-05 s⁻¹	–
C11U G13A A33C A53U	< 1e-05 s⁻¹	–	–	–	–	–
A6G U49A A53G U57C	< 1e-05 s⁻¹	–	–	< 1e-05 s⁻¹	–	–
C10G G43A G62U	< 1e-05 s⁻¹	< 1e-05 s⁻¹	–	–	–	–
G37U A48G	–	< 1e-05 s⁻¹	–	–	–	< 1e-05 s⁻¹
C11G A33G	< 1e-05 s⁻¹	< 1e-05 s⁻¹	–	< 1e-05 s⁻¹	< 1e-05 s⁻¹	–
A6U C58A	< 1e-05 s⁻¹	–	–	–	–	–
G9A U54C	< 1e-05 s⁻¹	< 1e-05 s⁻¹	< 1e-05 s⁻¹	–	–	–
A6U G35U	< 1e-05 s⁻¹	–	–	–	–	–
C10U A33U A52U	< 1e-05 s⁻¹	< 1e-05 s⁻¹	–	< 1e-05 s⁻¹	–	–

Variant	self-cleavage kobs at 40 uM GlcN6P [1]	self-cleavage kobs at 640 uM GlcN6P [2]	self-cleavage kobs at 160 uM GlcN6P [3]	self-cleavage kobs at 10000 uM GlcN6P [4]	self-cleavage kobs at 2500 uM GlcN6P [5]	kcat [6]
C10U G13A C68A	< 1e-05 s⁻¹	–	–	–	–	–
A6C C8U A14G	< 1e-05 s⁻¹	–	–	–	–	–
G7C C11G G51A	< 1e-05 s⁻¹	–	–	< 1e-05 s⁻¹	–	–
U49A C68U	–	–	–	–	–	< 1e-05 s⁻¹
G51A G60U	< 1e-05 s⁻¹	< 1e-05 s⁻¹	–	< 1e-05 s⁻¹	–	< 1e-05 s⁻¹
G9C U49A	< 1e-05 s⁻¹	< 1e-05 s⁻¹	–	< 1e-05 s⁻¹	< 1e-05 s⁻¹	–
G9U U65A	< 1e-05 s⁻¹	< 1e-05 s⁻¹	–	< 1e-05 s⁻¹	< 1e-05 s⁻¹	–
G7A A33U	< 1e-05 s⁻¹	–	< 1e-05 s⁻¹	< 1e-05 s⁻¹	–	–
C10U A15U G29A	< 1e-05 s⁻¹	< 1e-05 s⁻¹	–	< 1e-05 s⁻¹	–	–
U2A A3U C50A	< 1e-05 s⁻¹	–	–	3.38e-05 ± 1.2e-05 s⁻¹	–	–
C8U G51U	< 1e-05 s⁻¹	< 1e-05 s⁻¹	< 1e-05 s⁻¹	–	< 1e-05 s⁻¹	–
G7A C34A C71U	< 1e-05 s⁻¹	–	–	–	–	–
C8G A42C	< 1e-05 s⁻¹	< 1e-05 s⁻¹	< 1e-05 s⁻¹	< 1e-05 s⁻¹	< 1e-05 s⁻¹	–
G37U U54C	< 1e-05 s⁻¹	< 1e-05 s⁻¹	< 1e-05 s⁻¹	–	–	< 1e-05 s⁻¹
G9U G38C	< 1e-05 s⁻¹	< 1e-05 s⁻¹	< 1e-05 s⁻¹	< 1e-05 s⁻¹	< 1e-05 s⁻¹	–
G7A C11G	< 1e-05 s⁻¹	–	–	< 1e-05 s⁻¹	–	–
C10A C50U G63A A64C	< 1e-05 s⁻¹	< 1e-05 s⁻¹	–	–	–	–
G7U G37U U55A	< 1e-05 s⁻¹	–	–	–	–	–
G37U G66C	–	–	–	–	–	< 1e-05 s⁻¹
A6U G13C C16A U45G	< 1e-05 s⁻¹	–	–	–	–	–
C8U U45A U54C U57G	< 1e-05 s⁻¹	–	–	–	–	–
G9C G37U G59C	< 1e-05 s⁻¹	–	–	–	–	–
G7A G37C G51C U55C C70A	< 1e-05 s⁻¹	–	–	< 1e-05 s⁻¹	–	–
G43C G59A	–	–	< 1e-05 s⁻¹	–	–	< 1e-05 s⁻¹
A6C A48G G59A	< 1e-05 s⁻¹	–	–	< 1e-05 s⁻¹	–	–
A6G G9U C10A C11A A36U G51C	< 1e-05 s⁻¹	–	–	< 1e-05 s⁻¹	< 1e-05 s⁻¹	–
